From article PMC4336329 (PLoS ONE, 2015)
Screen size: about 310,000 compounds; about 14,000 (4.5%) showed an effect of 50% or more. The effect is printed as a negative number. Some of the results follow.

What follows are molecules tested against human ether-à-go-go-related gene (hERG) potassium channel (human, UniProt Q12809) (assay: primary screen, population patch clamp on CHO cells stably expressing hERG).
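Note: peak tail current of the secondary pulse compared with the same well before compound.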

Sequence of human ether-à-go-go-related gene (hERG) potassium channel (Q12809 whole entry, looked up): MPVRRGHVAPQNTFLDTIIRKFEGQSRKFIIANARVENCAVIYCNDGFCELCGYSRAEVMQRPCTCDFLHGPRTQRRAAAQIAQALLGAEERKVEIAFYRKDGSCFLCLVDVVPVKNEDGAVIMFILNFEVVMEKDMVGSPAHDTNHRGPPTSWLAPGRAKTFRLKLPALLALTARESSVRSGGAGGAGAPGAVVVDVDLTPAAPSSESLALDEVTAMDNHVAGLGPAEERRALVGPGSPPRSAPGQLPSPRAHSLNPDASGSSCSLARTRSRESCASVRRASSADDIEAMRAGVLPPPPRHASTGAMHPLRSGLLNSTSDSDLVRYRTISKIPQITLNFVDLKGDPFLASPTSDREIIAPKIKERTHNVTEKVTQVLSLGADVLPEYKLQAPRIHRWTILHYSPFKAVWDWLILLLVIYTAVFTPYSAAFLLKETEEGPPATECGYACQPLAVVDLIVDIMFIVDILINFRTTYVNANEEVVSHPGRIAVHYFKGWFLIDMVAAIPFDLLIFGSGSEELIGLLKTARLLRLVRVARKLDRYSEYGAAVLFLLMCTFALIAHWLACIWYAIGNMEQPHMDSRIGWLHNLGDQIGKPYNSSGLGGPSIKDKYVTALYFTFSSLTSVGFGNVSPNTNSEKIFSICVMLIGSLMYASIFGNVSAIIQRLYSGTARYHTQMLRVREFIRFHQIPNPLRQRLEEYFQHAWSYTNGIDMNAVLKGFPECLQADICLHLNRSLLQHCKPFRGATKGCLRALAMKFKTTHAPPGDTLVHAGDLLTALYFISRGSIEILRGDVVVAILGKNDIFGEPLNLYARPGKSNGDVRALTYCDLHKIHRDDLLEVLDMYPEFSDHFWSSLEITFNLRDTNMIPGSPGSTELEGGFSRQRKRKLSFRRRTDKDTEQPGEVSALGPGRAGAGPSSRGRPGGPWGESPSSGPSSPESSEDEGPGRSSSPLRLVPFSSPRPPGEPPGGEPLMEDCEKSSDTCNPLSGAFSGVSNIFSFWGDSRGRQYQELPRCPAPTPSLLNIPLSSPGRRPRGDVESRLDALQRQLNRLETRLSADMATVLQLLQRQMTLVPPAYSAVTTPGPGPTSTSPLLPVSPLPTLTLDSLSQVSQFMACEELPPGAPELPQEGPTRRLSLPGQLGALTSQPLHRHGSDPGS

SMILES | hERG current change (%, negative = inhibition) at 10uM [%]
O=C1CC(N(C(=O)c2ccco2)c2ccc(F)cc2)C(=O)N1c1ccc(F)cc1 (stereo not drawn) | -3.79
Cc1cccc(C)c1N(CC(=O)N(C)Cc1ccccc1)S(C)(=O)=O | 3.99
C=CCNC(=S)N1CCN(CCN=CC2=C(O)CC(c3ccc(Cl)cc3)CC2=O)CC1 (stereo not drawn) | -66.4
O=C1OCc2ccc(NS(=O)(=O)c3ccc(C(F)(F)F)cc3)cc21 | 10.4
CCOC(=O)CC1C(=O)NCCN1C1CCCC1 (stereo not drawn) | 10.3
COc1ccc(OC(C)C(=O)NCC2CCCO2)cc1 (stereo not drawn) | 18.5
NC(=O)C1(N2CCCCC2)CCN(C(=S)Nc2ccccc2)CC1 | -5.2
CCCCc1ccc(NC(=S)Nc2ccc(Cl)c(S(=O)(=O)N(C)C)c2)cc1 | 19
CCOC(=O)C1CCN(Cc2cnc(Oc3ccc(OC)cc3)s2)CC1 | -17.3
CCOC(=O)N1CCC(NCCNC(=O)c2ccc(F)c(F)c2)CC1.Cl | -37.3
CC(C)CNC(=O)COC(=O)c1cccc(S(=O)(=O)NCC(F)(F)F)c1 | 5.98
CCOc1ccc(S(=O)(=O)Nc2cccc(C(=O)N(C)CC(=O)Nc3cccc(OC)c3)c2)cc1 | -9.89
Cn1c(C(O)c2ccc(Cl)cc2)nc(Cl)c1Cl (stereo not drawn) | -9.61
OC(CNCC1CCCO1)Cn1c2ccc(Br)cc2c2cc(Br)ccc21 (stereo not drawn) | -30
C=C(C)Cn1c(C2CC(=O)N(c3ccccc3F)C2)nc2ccccc21 (stereo not drawn) | -27
O=S(=O)(/N=C(/Nc1ccc(F)c(F)c1F)c1ccccc1)c1ccccc1 | 15.6
Cc1cccc(N2C(=O)NC(=O)/C(=C/c3ccc([N+](=O)[O-])o3)C2=O)c1 | 18.8
Cc1c(NC(=O)C(C)Sc2ncnc3ccccc23)c(=O)n(-c2ccccc2)n1C (stereo not drawn) | 10.9
CN(C(=O)CSc1nc2ccccc2n1C)C1CCS(=O)(=O)C1 (stereo not drawn) | 1.63
CC(=O)c1c(OC(=O)c2ccccc2)ccnc1C(F)(F)F | -11.8
Cc1ccc(Nc2c(-c3ccco3)nc3nc(C)cc(C)n23)cc1 | -29.1
Cc1oc2cc3oc(=O)c(CCC(=O)NC4CC4)c(C)c3cc2c1C | 8.94
COc1ccc(/C=C/C(O)=C(\C#N)c2nnc(N3CCOCC3)n2-c2ccccc2)cc1OC | 19.3
CCOc1ccc(C(=O)NN2CCOCC2)cc1 | 4.51
